The text below walks through data of the supplement of paper PMC7125110.

± gives the standard error. Variants at the floor of the assay are shown more often than the library holds them.

The chains are these.
B1: glmS ribozyme (parent)
chain: AUAAAAGCGCCAGAACUACAGAAAUGUAGUUGACGAGGAGGAGGUUUAUCGAAUUUUCGGCGGAUGCCUCCAAA

The variants in the first data set derive from B1. Briefly: self-cleavage kobs at 2500 uM GlcN6P; higher = faster cleavage; RNA array. To be noted: with glucosamine-6-phosphate. An outline of the steps: (§1)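 Weighted Michaelis–Menten fits across concentrations supplied kcat and KM, based on kobs from one- or two-exponential decay fits to normalised per-tile medians. The data came from barcoded ribozyme variants transcribed in situ by E. coli RNA polymerase on sequenced MiSeq chips and tracked at 37 °C by a hybridised Cy3 probe. Glucosamine-6-phosphate (40 μM to 10 mM) in HEPES/KCl/Mg(OAc)2 buffer was flowed in.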
Regarding AUAAAAGCGCCAGGACUACAGAAAUGUAGUUGAGGAGGAGGAGGUUUAUCGUAUUUUCGGCGGAUGCCUCCAAA [A14G C34G A52U], the “self-cleavage kobs at 2500 uM GlcN6P” value was under 1e-05 s⁻¹.

Regarding AUAAAAGCGCCAGCACUACAGAAAUGUAGUUGACAAGGAGGAGGUUUAGCGAAUUUUCGGCGGAUGCCUCCAAA [A14C G35A U49G], the “self-cleavage kobs at 2500 uM GlcN6P” value was under 1e-05 s⁻¹.

Regarding AUAAAAGCGCCAUAAGUACAGAAAUGUAGUUGUGGAGGAGGAGGUUUAUCGAAAUUUGGGCGGAUGCCUCCAAA [G13U C16G A33U C34G U54A C58G], the “self-cleavage kobs at 2500 uM GlcN6P” value is under 1e-05 s⁻¹.

As for AUAAAAGCGCCAGCACUACAGAAAUGUAGUUGACGAGGAGGAGGUCUAUAGAAUUUCCGGUGGACGCCUCCAAA [A14C U46C C50A U57C C61U U65C], the “self-cleavage kobs at 2500 uM GlcN6P” value was under 1e-05 s⁻¹.

AUAAAAGCGCCAGGACUACAGAAAUGUAGUUGUCGAGGAGGAGAUUUAUCGAAUUUUCGGCGGAAGCCUCCAAA [A14G A33U G44A U65A]: the “self-cleavage kobs at 2500 uM GlcN6P” value is under 1e-05 s⁻¹.

Regarding AUAAAAGCGCCAGCACUACAGAAAUGUAGUUGACGUGGAGGAGGUUUAUCGAAUAUUCGGCGGAUGCCUCCAAA [A14C A36U U55A], the “self-cleavage kobs at 2500 uM GlcN6P” value is under 1e-05 s⁻¹.

Take AUAAAAGCGCCACAACUACAGAAAUGUAGUUGACGAGGAGAAGGUUUAUCGAAUUUUCGGCGGAAGCCUCCAAA [G13C G41A U65A]: the “self-cleavage kobs at 2500 uM GlcN6P” value was under 1e-05 s⁻¹.

Take AUAAAAGCGCCAGAUCUACAGAAAUGUAGUUGGCGAGGAGGAGGUUUGUCGAAUUUUCGGCAGAUGCCUCCAAA [A15U A33G A48G G62A]: the “self-cleavage kobs at 2500 uM GlcN6P” value was under 1e-05 s⁻¹.

With AUAAAAGCGCCAGAGCUACAGAAAUGUAGUUGACCACGAGGAGGUUUACCGAAUUUUCGGCGGAUGCCUCCAAA [A15G G35C G37C U49C], the “self-cleavage kobs at 2500 uM GlcN6P” value was under 1e-05 s⁻¹.

As to AUAAAAGCGCCACAACUACAGAAAUGUAGUUGACGAGGAGGAGGUUUAUCGAAUAUUCGGCGGAUGCCUCCAAA [G13C U55A], the “self-cleavage kobs at 2500 uM GlcN6P” value stood at 6.85e-05 ± 1.6e-05 s⁻¹.

AUAAAAGCGCCAGCAAUACAGAAAUGUAGUUGACGAGGAGGAGGUUUAUCGAAUUUUCGGCGUAUGCCUCCAAA [A14C C16A G63U]: the “self-cleavage kobs at 2500 uM GlcN6P” value is under 1e-05 s⁻¹.

As for AUAAAAGCGCCAGCACUACAGAAAUGUAGUUGACGAGGAGGAGGAUUAUCGAAUUUUCGGCGGUUGCCUCCAAA [A14C U45A A64U], the “self-cleavage kobs at 2500 uM GlcN6P” value worked out at 4.3e-05 ± 1.9e-05 s⁻¹.

With AUAAAAGCGCCAGAGCUACAGAAAUGUAGUUAACUAGGAGGAGGUUUAUCGCAUUUUCGGCGGAUGCCUCCAAA [A15G G32A G35U A52C], the “self-cleavage kobs at 2500 uM GlcN6P” value was under 1e-05 s⁻¹.

For AUAAAAGCGCCAGACCUACAGAAAUGUAGUUGACGAAGGGGAAGUCUAUCGAAUUUUCGGCGGAUGCCUCCAAA [A15C G37A A39G G43A U46C], the “self-cleavage kobs at 2500 uM GlcN6P” value is under 1e-05 s⁻¹.

With AUAAAAGCGCCAGCACUACAGAAAUGUAGUUGACGAGGAGGAGGGUUAUCGAAUUUUCGGCGGAUGCUUCCAAA [A14C U45G C68U], the “self-cleavage kobs at 2500 uM GlcN6P” value came to 3.4e-05 ± 1.6e-05 s⁻¹.

In the case of AUAAAAGCGCCACAACUACAGAAAUGUAGUUGACGAGGAGGAGGUUUAUUGGAUUUUCGGCGGAUGCCUCCAAA [G13C C50U A52G], the “self-cleavage kobs at 2500 uM GlcN6P” value was under 1e-05 s⁻¹.

On to AUAAAAGCGCCUGAACUACAGAAAUGUAGUUGACGAGGAGGAGGUUUAUCCAAUUUUCGGCGGAUGCCGCCAAA [A12U G51C U69G], for which the “self-cleavage kobs at 2500 uM GlcN6P” value is under 1e-05 s⁻¹.

Consider AUAAAAGCGCCAUAACUACAGAAAUGUAGUUGACGACGCGGAGGUUUAUCGAAUUUUCGGCGGAUGCCUCCAAA [G13U G37C A39C], for which the “self-cleavage kobs at 2500 uM GlcN6P” value was under 1e-05 s⁻¹.

With AUAAAAGCGCCAGACCUACAGAAAUGUAGUUGACGAGGAGGCGGUUUAUCGAAUUUUCGGCGGAUGCUUCCAAA [A15C A42C C68U], the “self-cleavage kobs at 2500 uM GlcN6P” value is under 1e-05 s⁻¹.

For AUAAAAGCGCCAUAACUACAGAAAUGUAGUUGACGUGGAGCAGGUUUAUCGAAUUUUCGGCGGAUGCCUCCAAA [G13U A36U G41C], the “self-cleavage kobs at 2500 uM GlcN6P” value is under 1e-05 s⁻¹.

Regarding AUAAAAGCGCCAGAGCUACAGAAAUGUAGUCGACGUGGAGGAGGUUUAUCGAAUGUACGACGGAUGCCUCCAAA [A15G U31C A36U U55G U57A G60A], the “self-cleavage kobs at 2500 uM GlcN6P” value is under 1e-05 s⁻¹.

Consider AUAAAAGCGCCAGUAAUACAGAAAUGUAGUUGACGAGGAGCAGGUUUAUCGAAUUUUCGGCGGAUGCCUCCAAA [A14U C16A G41C], for which the “self-cleavage kobs at 2500 uM GlcN6P” value was under 1e-05 s⁻¹.

For the variant AUAAAAGCGCCUGAACUACAGAAAUGUAGUUGAUGAGGAGGAGGUUUAUCGAAUUUUCGGCGGAUGCCUCUAAA [A12U C34U C71U], the “self-cleavage kobs at 2500 uM GlcN6P” value was under 1e-05 s⁻¹.

Consider AUAAAAGCGCCAAAACUACAGAAAUGUAGUUCUCGAGGAGGAGAUUUCUCGAAUUUUCGGCGGAUGCCUCCAAA [G13A G32C A33U G44A A48C], for which the “self-cleavage kobs at 2500 uM GlcN6P” value was under 1e-05 s⁻¹.

On to AUAAAAGCGCCAUAACUACAGAAAUGUAGUUGACGAGGAGGAGGUUUGUCGAAAUUUCGGCGGAUGCCUCCAAA [G13U A48G U54A], for which the “self-cleavage kobs at 2500 uM GlcN6P” value is under 1e-05 s⁻¹.

As for AUAAAAGCGCCUGAACUACAGAAAUGUAGUAGACGAGGAGGAGGUUUAUCGAAUUUUCGACGGAUGCCUACAAA [A12U U31A G60A C70A], the “self-cleavage kobs at 2500 uM GlcN6P” value was under 1e-05 s⁻¹.

Take AUAAAAGCGCCAGUACUACAGAAAUGUAGUUGACGAGGAGGAUGUUUAUCGAAUUUUCGGCUGAUGCCUCCAAA [A14U G43U G62U]: the “self-cleavage kobs at 2500 uM GlcN6P” value is under 1e-05 s⁻¹.

AUAAAAGCGCCAUAUCUACAGAAAUGUAGGUGACGAGGAGGAGGUUUAUCGAAUUUUCCGCGGAUGCCUCCAAA [G13U A15U U30G G59C]: the “self-cleavage kobs at 2500 uM GlcN6P” value was under 1e-05 s⁻¹.

For the variant AUAAAAGCGCCAGAGCUACAGAAAUGUAGUUGACGACGAGGAGGUUUAUCGAAUUUGCGGCGGAUGUCUCCAAA [A15G G37C U57G C67U], the “self-cleavage kobs at 2500 uM GlcN6P” value was under 1e-05 s⁻¹.

In the case of AUAAAAGCGCCAGUACUACAGAAAUGUAGUUGACGAGGAGGAGGUAUACCGAAUUUUCGGAGGAUGCCUCCAAA [A14U U46A U49C C61A], the “self-cleavage kobs at 2500 uM GlcN6P” value is under 1e-05 s⁻¹.

With AUAAAAGCGCCAGACCUACAGAAAUGUAGUUGACGAUGGGGAGGUUUAUCGAAUUUUCGGCGGAUGCCUCCAAA [A15C G37U A39G], the “self-cleavage kobs at 2500 uM GlcN6P” value is under 1e-05 s⁻¹.

Consider AUAAAAGCGCCGGAACUACAGAAAUGUAGUUGACGAGGAAGAGGUUUAUCGAAUUUUCGACGGAUGCCGCCAAA [A12G G40A G60A U69G], for which the “self-cleavage kobs at 2500 uM GlcN6P” value is under 1e-05 s⁻¹.

Turning to AUAAAAGCGCCAGUACUACAGAAAUGUAGUUGACGUGGAGGACGUUUAUCGAAUUUUCGGCGGAUGCCUCCAAA [A14U A36U G43C], the “self-cleavage kobs at 2500 uM GlcN6P” value is under 1e-05 s⁻¹.

Regarding AUAAAAGCGCCAGACCUACAGAAAUGUAGUUGACGAGGGGGAGGUUGAUCGAUUUUUCGGCGGAUGCCUCCAAA [A15C A39G U47G A53U], the “self-cleavage kobs at 2500 uM GlcN6P” value stood at 0.000235 ± 8.5e-05 s⁻¹.

Consider AUAAAAGCGCCAGGGCUACAGAAAUGUAGUUGACGCGGAGGAGGUUUAUCGAGUUUUCGGCGGAUGCCUCCAAA [A14G A15G A36C A53G], for which the “self-cleavage kobs at 2500 uM GlcN6P” value was under 1e-05 s⁻¹.

The variants in a further data set derive from B1. Briefly: self-cleavage kobs at 10000 uM GlcN6P; higher = faster cleavage; RNA array. To be noted: with glucosamine-6-phosphate. An outline of the steps: as §1
AUAAAAGCGCCAGGACUACAGAAAUGUAGUUGAGGAGGAGGAGGUUUAUCGUAUUUUCGGCGGAUGCCUCCAAA [A14G C34G A52U]: the “self-cleavage kobs at 10000 uM GlcN6P” value was under 1e-05 s⁻¹.

For AUAAAAGCGCCAUAACUACAGAAAUGUAGUUGACGUGGAGCAGGUUUAUCGAAUUUUCGGCGGAUGCCUCCAAA [G13U A36U G41C], the “self-cleavage kobs at 10000 uM GlcN6P” value was under 1e-05 s⁻¹.

For AUAAAAGCGCCAAAACUACAGAAAUGUAGUUCUCGAGGAGGAGAUUUCUCGAAUUUUCGGCGGAUGCCUCCAAA [G13A G32C A33U G44A A48C], the “self-cleavage kobs at 10000 uM GlcN6P” value is under 1e-05 s⁻¹.
